# Source: PubChem BioAssay (Tox21)
# Inconclusive results, whose numbers are uncertain, are shown with a selection of clear calls. For some assays here: No potency is given beside an inconclusive call; the fits are too rough. Calls of active or inactive are those of the source. Unless noted, calls follow the shape of the dose curve; as a rule, active = well fitted curve in the direction sought with a large enough effect in the repeat runs; inconclusive = weak or mixed curves; inactive = no such curve, though single readings can be large; an effect the other way counts as inactive or inconclusive.
# Key:
# [1] = qHTS assay to identify small molecule phospholipidosis (PLD) inducers (AID 1259344; active = well fitted curve in the direction sought with a large enough effect; inconclusive = small, poorly fitted or top-dose-only effect, or another doubt; inactive = no such curve, though single readings can be large; an effect the other way counts as inactive or inconclusive; also: % is scaled to controls: 0 for no effect and ±100 for the full control effect); conditions: HepG2 phospholipidosis, LipidTOX Red imaging, 24 h; PLD induction: at 38.3 µM (top of the series) unless noted
# How it was run: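 HepG2 cells grown on collagen I take up LipidTOX Red while exposed to compound for 24 h; after fixation they are imaged at 20x and pit metrics are extracted.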
# [2] = qHTS assay to identify small molecule agonists or antagonists of the thyroid stimulating hormone receptor (TSHR) signaling pathway - wild type cell line counter screen (AID 1259384; calls by dose curve; also: % is scaled to controls: 0 for no effect and ±100 for the full control effect); conditions: HEK293 wild type, cAMP HTRF counter-screen; cAMP activity change: at 92.4 µM (top of the series), hits give high values unless noted
# How it was run: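 Wild-type HEK293 cells were plated 18 h at 37 C/5% CO2, pin-dosed with compound plus Ro20-1724 medium, held 30 min at room temperature, then given cAMP-d2 and anti-cAMP-cryptate; fluorescence was read after 1 h. Fifteen concentrations, triplicate.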
# [3] = qHTS RealTime-Glo MT Cell Viability Assay in HepG2 cells - 0 hour (AID 1224889); also: % is scaled to controls: 0 for no effect and ±100 for the full control effect; nearly all actives have a fitted effect of over 50% in size
# How it was run: (§1)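 Luminescence read-out: viable HepG2 cells reduce a prosubstrate to a NanoLuc substrate, giving a signal proportional to live cell number. Reads taken at 0, 8, 16, 24, 32 and 40 h of compound exposure at 37 C.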
# [4] = system: thyroid hormone receptor (rat, GH3 cells); assay: qHTS assay to identify small molecule agonists of the thyroid receptor (TR) signaling pathway (AID 743066; calls by dose curve; also: % is scaled to controls: 0 for no effect and ±100 for the full control effect); conditions: GH3.TRE-Luc cells, TR agonist luciferase, 24 h; activation: at 83.9 µM (top of the series) unless noted
# [5] = qHTS assay to test for compound auto fluorescence at 460 nm (blue) in HepG2 cells (AID 720687); also: potency is read from the fitted curve at half-maximal effect
# How it was run: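 Cells (2,000/well in MEM with 10% FBS) attached overnight at 37 C, then were exposed to compound or DMSO for 1 hr at 37 C, 5% CO2. Fluorescence read at Ex/Em 405/460 nm, expressed as triamterene-equivalent signal.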
# [6] = qHTS RealTime-Glo MT Cell Viability Assay in HepG2 cells - 32 hour (AID 1224877); also: % is scaled to controls: 0 for no effect and ±100 for the full control effect; nearly all actives have a fitted effect of over 55% in size
# How it was run: as §1
# [7] = target: Nuclear receptor subfamily 1 group I member 2 (Homo sapiens) (UniProt O75469); assay: Human pregnane X receptor (PXR) activation by small molecules, qHTS assay (AID 1346985); also: nearly all actives have a fitted effect of over 40% in size; also: potency is read from the fitted curve at half-maximal effect
# How it was run: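 DPX-2 cells (HepG2 co-transfected with a PXR response element and a CYP3A4-promoter luciferase construct) were seeded at 2,000 per well, rested 5 hr at 37C, then exposed to DMSO-dissolved compounds for 24 hr. Activation was read as luciferase luminescence.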
# [8] = qHTS assay for small molecule activators of the heat shock response signaling pathway - cell viability counter screen (AID 743209); conditions: HSE-bla HeLa viability, CellTiter-Glo luminescence, 5 h; activity change, negative = cytotoxicity: at 62.6 µM (top of the series) unless noted; also: nearly all actives have a fitted effect of over 50% in size; also: potency is read from the fitted curve at half-maximal effect
# How it was run: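 Readout: CellTiter-Glo luminescence, 30 min at room temperature. System: HSE-bla HeLa cells, 1500/well, plated overnight. Treatment: compounds in DMSO, 5 h at 37 C.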
# [9] = target: Androgen receptor (Homo sapiens) (UniProt P10275); assay: qHTS assay to identify small molecule antagonists of the androgen receptor (AR) signaling pathway using the MDA cell line (AID 743042; also: nearly all actives have a fitted effect of over 55% in size; also: potency is read from the fitted curve at half-maximal effect)
# How it was run: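 MDA-kb2 cells (human breast carcinoma, stably carrying an MMTV-luciferase reporter responsive to AR and GR) were plated at 3,000 cells/well and preincubated 5 hr at 37C, then given compound plus R1881 agonist for 16 h. ONE-Glo luminescence was read.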
# [10] = qHTS assay to test for compound auto fluorescence at 460 nm (blue) in HepG2 cell free culture (AID 720685); also: potency is read from the fitted curve at half-maximal effect
# How it was run: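 Compound (23 nL) or DMSO pinned into cell-free MEM with 10% FBS; blue fluorescence read at 405/460 nm excitation/emission, expressed as auto-fluorescence equivalency to triamterene.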
# [11] = qHTS assay to identify small molecule agonists of the hypoxia (HIF-1) signaling pathway (AID 1224846; active = well fitted activation curve with a large enough effect in the signal ratio in the repeat runs, not every such curve was filed as active; inconclusive = weak or mixed curves; the % refers to the signal ratio; also: % is scaled to controls: 0 for no effect and ±100 for the full control effect); conditions: HRE-bla ME-180 cells, beta-lactamase ratio, 17 h; activation: at 76.8 µM (top of the series) unless noted
# How it was run: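 A low-serum medium (0.5% dialyzed FBS) holding 2,000 HRE-bla ME-180 cells per well is preincubated for 5 hrs, dosed with compounds by pintool, and kept a further 17 hrs at 37C, 5% CO2 before CCF4-AM FRET detection of beta-lactamase.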
# [12] = qHTS RealTime-Glo MT Cell Viability Assay in HepG2 cells - 8 hour (AID 1224873); also: % is scaled to controls: 0 for no effect and ±100 for the full control effect; nearly all actives have a fitted effect of over 55% in size
# How it was run: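 HepG2 cells mixed with RealTime-Glo MT reagents (NanoLuc plus cell-permeant prosubstrate) were seeded at 600 cells/well, incubated 5 h at 37 C/5% CO2, then pinned with compounds in DMSO; nonlytic luminescence tracked viability during 40 h treatment.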
# [13] = qHTS assay for small molecules that induce genotoxicity in human embryonic kidney cells expressing luciferase-tagged ATAD5 - cell viability (AID 651634; calls by dose curve; also: nearly all actives have a fitted effect of over 25% in size; also: potency is read from the fitted curve at half-maximal effect)
# How it was run: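 Viability read: CellTiter-Fluor fluorescence, 30 min at 37C. Cells: HEK293T, luciferase-tagged ATAD5. Exposure: 15.5 hr, 37C, 5% CO2, compound or DMSO vehicle.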
# [14] = qHTS assay to test for compound auto fluorescence at 535 nm (green) in HepG2 cells (AID 720675); conditions: green autofluorescence 485/535 nm, 1 h; fluorescence, % of fluorescein control: at 91.3 µM (top of the series) unless noted; also: % is scaled to controls: 0 for no effect and ±100 for the full control effect
# [15] = target: Nuclear receptor subfamily 1 group I member 3 (Homo sapiens) (UniProt Q14994); assay: qHTS assay to identify small molecule antagonists of the constitutive androstane receptor (CAR) signaling pathway (AID 1224838);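 also: HepG2 cells stably expressing hCAR with CYP2B6 luciferase reporter stimulated by CITCO; nearly all actives have a fitted effect of over 40% in size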; also: potency is read from the fitted curve at half-maximal effect
# How it was run: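 Cell line: HepG2 double-stable for hCAR and CYP2B6-2.2kb reporter. Agonist: CITCO, 50 nM final. Compounds: 15 concentrations, 24 h, 37 C. Detection: ONE-Glo luminescence.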
# [16] = target: Thyrotropin-releasing hormone receptor (Homo sapiens) (UniProt P34981); assay: qHTS assay to identify small molecule antagonists of the thyrotropin-releasing hormone receptor (TRHR) signaling pathway (AID 1346877; active = well fitted inhibition curve with a large enough effect in the repeat runs, not every such curve was filed as active; inconclusive = weak or mixed curves; also: % is scaled to controls: 0 for no effect and ±100 for the full control effect)
# How it was run: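 Following an 18 h incubation at 37 °C and a 2 h calcium dye load, TRHR-HEK293 cells were exposed to compound (5 min, room temperature) and challenged with TRH, 1 nM final.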
# [17] = target: Nuclear receptor subfamily 1 group I member 2 (Homo sapiens) (UniProt O75469); assay: CYP3A4 induction through human pregnane X receptor (PXR) by small molecules, qHTS assay (AID 1346984); conditions: DPX-2 HepG2 PXR, CYP3A4-luciferin luminescence, 24 h; activation: at 46.1 µM (top of the series) unless noted; also: potency is read from the fitted curve at half-maximal effect; nearly all actives have a fitted effect of over 40% in size
# How it was run: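 Readings come from a luciferase reporter: DPX-2 cells, which are HepG2 cotransfected with PXR and a CYP3A4-promoter construct, were exposed to test compounds for 24 h at 37C before One-Glo detection.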
# [18] = qHTS assay to identify small molecule antagonists of the estrogen related receptor (ERR) signaling pathway from Tox21 library (AID 1224848); also: % is scaled to controls: 0 for no effect and ±100 for the full control effect; nearly all actives have a fitted effect of over 50% in size
# How it was run: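 Screening used an ERR reporter line supplied by NTP, exposed for 18 h at 37 C to library compounds delivered in DMSO. Signal was luciferase luminescence developed with ONE-Glo at room temperature for 30 min.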
# [19] = qHTS assay to test for compound auto fluorescence at 460 nm (blue) in HEK293 cell free culture (AID 720681); also: potency is read from the fitted curve at half-maximal effect
# How it was run: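 Test compounds were pinned into cell-free culture medium (DMEM with 10% FBS) and fluorescence was read directly at Ex/Em 405/460 nm. Signals were expressed as fluorescence equivalents of triamterene, with DMSO vehicle as control.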
# [20] = qHTS assay to identify small molecule agonists of the estrogen related receptor (ERR) signaling pathway (AID 1224820); also: potency is read from the fitted curve at half-maximal effect
# How it was run: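 Cells: ERR line from NTP, 2,000/well. Pre-incubation 6 h, 37 C/5% CO2. Compound (DMSO) pin transfer, 18 h 37 C. One-Glo, 30 min RT, luminescence.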
# Tags tell the direction and shape of the fitted curve or compound fluorescence and quenching.
# UniProt P10275, sequence (P10275 whole entry, looked up): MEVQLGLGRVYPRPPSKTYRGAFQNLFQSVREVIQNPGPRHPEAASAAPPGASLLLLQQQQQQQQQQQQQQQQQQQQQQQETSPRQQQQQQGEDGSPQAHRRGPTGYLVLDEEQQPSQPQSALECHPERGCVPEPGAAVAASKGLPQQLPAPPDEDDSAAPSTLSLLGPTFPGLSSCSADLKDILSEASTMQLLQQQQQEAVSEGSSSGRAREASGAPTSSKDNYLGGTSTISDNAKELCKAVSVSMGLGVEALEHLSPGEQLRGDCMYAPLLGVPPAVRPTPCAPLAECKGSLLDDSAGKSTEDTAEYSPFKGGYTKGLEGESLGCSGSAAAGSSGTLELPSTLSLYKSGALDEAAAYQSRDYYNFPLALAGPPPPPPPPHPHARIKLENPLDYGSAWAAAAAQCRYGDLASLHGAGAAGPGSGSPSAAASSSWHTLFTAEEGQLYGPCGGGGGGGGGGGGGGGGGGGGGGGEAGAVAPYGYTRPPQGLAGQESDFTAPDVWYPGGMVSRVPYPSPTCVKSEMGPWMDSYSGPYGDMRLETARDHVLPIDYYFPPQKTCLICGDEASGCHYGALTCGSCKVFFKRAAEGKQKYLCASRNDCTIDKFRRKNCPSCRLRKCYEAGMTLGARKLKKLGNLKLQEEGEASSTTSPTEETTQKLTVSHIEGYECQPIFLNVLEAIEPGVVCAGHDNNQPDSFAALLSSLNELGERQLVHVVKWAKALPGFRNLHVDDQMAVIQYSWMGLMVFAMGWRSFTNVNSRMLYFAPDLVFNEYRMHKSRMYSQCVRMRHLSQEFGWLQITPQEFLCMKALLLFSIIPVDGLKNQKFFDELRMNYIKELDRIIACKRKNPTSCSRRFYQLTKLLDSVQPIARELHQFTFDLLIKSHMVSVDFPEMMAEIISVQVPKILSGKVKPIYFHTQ
# UniProt Q14994, sequence (Q14994 whole entry, looked up): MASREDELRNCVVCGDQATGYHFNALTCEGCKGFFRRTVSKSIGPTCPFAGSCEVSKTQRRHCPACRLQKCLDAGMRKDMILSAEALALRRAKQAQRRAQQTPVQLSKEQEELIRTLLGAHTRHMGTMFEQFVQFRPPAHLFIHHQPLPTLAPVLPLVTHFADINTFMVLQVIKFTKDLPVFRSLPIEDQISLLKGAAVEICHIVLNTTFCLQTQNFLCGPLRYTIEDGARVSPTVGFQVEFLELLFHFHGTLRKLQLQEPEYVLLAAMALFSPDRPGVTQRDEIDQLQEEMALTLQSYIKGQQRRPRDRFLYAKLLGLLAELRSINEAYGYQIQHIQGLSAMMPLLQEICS
# UniProt P34981, sequence (P34981 whole entry, looked up): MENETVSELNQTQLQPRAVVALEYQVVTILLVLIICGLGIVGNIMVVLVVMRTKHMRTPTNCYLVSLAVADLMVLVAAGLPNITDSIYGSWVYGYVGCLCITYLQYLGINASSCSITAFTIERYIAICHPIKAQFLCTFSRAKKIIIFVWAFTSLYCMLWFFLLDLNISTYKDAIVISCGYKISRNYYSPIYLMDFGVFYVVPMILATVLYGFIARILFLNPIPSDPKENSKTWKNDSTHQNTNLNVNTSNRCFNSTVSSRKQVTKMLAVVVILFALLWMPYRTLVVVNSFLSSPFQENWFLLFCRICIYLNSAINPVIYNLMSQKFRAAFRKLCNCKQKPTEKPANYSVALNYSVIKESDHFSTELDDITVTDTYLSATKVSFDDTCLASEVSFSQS
smiles,measurement,setting,value
CN=C(NC#N)NCCSCc1nc[nH]c1C,Potency,[1],inactive
C=CCS(=O)(=O)O,Potency,[2],inactive
FC(F)(F)c1ccccc1-n1ccnc1,Potency,[3],inactive
CCCCC(CC)COC(=O)CCCCC(=O)OCC(CC)CCCC (stereo not drawn),Potency,[4],inactive
CCN(CC)CCOCCOC(=O)C1(c2ccccc2)CCCC1,Potency,[5],inactive
same,Potency,[6],inactive
same,Potency,[7],"inconclusive [activator, partial curve, poor fit]"
CCCCCCCC/C=C\CCCCCCCC(=O)OC(CO)CO,Potency,[8],active: 43.6 µM
CCNC(=O)/C=C/c1cccc(Br)c1,Potency,[9],inconclusive [inhibitor]
C=CC(OCC)OCC,Potency,[3],inactive
Nc1ccc2cc(S(=O)(=O)O)cc(O)c2c1,Potency,[10],"inconclusive [fluorescent, partial curve, poor fit]"
same,Potency,[5],"inconclusive [fluorescent, partial curve, poor fit]"
same,Potency,[9],inactive
same,Potency,[11],inactive
same,cAMP activity change,[2],inconclusive: -0.55%
FC(F)(F)C(F)(F)C(F)(F)C(F)(F)C(F)(F)C(F)(F)C(F)(F)C(F)(F)Br,Potency,[12],inactive
CC(=O)Nc1ccc(S(=O)(=O)Nc2ccc([N+](=O)[O-])cc2)cc1,Potency,[13],"inconclusive [falling, partial curve]"
Cc1cnc(C(=O)NCCc2ccc(S(=O)(=O)NC(=O)NC3CCCCC3)cc2)cn1,Potency,[13],inactive
same,Potency,[14],inactive
CN1C(=O)CC(c2ccccc2)C1=O (stereo not drawn),Potency,[15],"inconclusive [inhibitor, full curve]"
O=C(O)c1ccccc1C(=O)OCc1ccccc1,Potency,[16],inactive
O=C1C(c2[nH]c3ccccc3c2O)=Nc2ccccc21,Potency,[17],active: 891 nM
OC[C@H]1O[C@@H](O[C@H]2[C@H](O)[C@@H](O)[C@H](O)O[C@@H]2CO)[C@H](O)[C@@H](O)[C@H]1O,Potency,[8],inactive
COP(=O)(OC)OC(c1ccc(Cl)cc1)P(=O)(OC)OC (stereo not drawn),Potency,[18],inactive
same,Potency,[7],inactive
O=C(O)CCSSCCC(=O)O,Potency,[15],inactive
CC(C)CCCC(C)N (stereo not drawn),Potency,[11],inactive
COC(OC)(C(=O)c1ccccc1)c1ccccc1,Potency,[12],inactive
CCCCCCCCCC(C)=O,Potency,[11],inactive
CCOc1ccc(O)cc1,Potency,[13],inactive
O=S(=O)(O)c1ccc2cc(O)c(S(=O)(=O)O)cc2c1,Potency,[19],"inconclusive [rising, single point]"
same,Potency,[10],"inconclusive [fluorescent, partial curve, poor fit]"
CC(C)OCC1CO1 (stereo not drawn),Potency,[18],inactive
same,Potency,[6],inactive
CC(C)(C)C(=O)NCCCC(=O)O,Potency,[19],inactive
CC(C)(C)OC(=O)c1ccc(O)cc1,Potency,[18],inactive
COc1ccc(/C=C2\COc3ccc(C)cc3C2=O)cc1O,Potency,[20],active: 1.19 µM
C=C1C(=O)O[C@@H]2[C@H]3O[C@]3(C)CCC=C(C)CC[C@@H]12,Potency,[20],"inconclusive [activator, partial curve, poor fit]"
